Reference: article PMC12820563, “FoxP3 forms a head-to-head dimer in vivo and stabilizes its multimerization on adjacent microsatellites”
Some of the results follow.

Molecular target: T1, MBP-FoxP1dN (Mus musculus, UniProt P58462 326-579)
T1 sequence: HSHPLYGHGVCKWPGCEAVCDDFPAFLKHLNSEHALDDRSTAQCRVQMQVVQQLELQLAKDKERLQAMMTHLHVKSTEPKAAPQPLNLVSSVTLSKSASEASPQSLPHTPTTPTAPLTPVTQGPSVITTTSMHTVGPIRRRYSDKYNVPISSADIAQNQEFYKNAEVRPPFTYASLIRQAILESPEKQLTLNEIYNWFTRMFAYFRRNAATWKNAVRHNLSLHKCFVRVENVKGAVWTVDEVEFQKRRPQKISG
Assay: PD-seq (MBP pull-down with sequencing); 20 mM Tris-HCl pH 7.5, 100 mM NaCl, 1.5 mM MgCl2, 0.4 uM protein, 0.1 uM dsDNA library, 30 min, room temperature, amylose pull-down; high values mean tight binding
Details: protein: recombinant; tags: His6-MBP; chain copies: 2; dsDNA, one strand shown
Procedure, shortened: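 A fragment of mouse FoxP3 or FoxP1 without its N-terminus, carrying a His6-MBP tag and produced in E. coli, was combined at 0.4 µM with a 0.1 µM degenerate double-stranded DNA library filled in with Klenow. The mixture sat for 30 min at room temperature in Tris pH 7.5 buffer containing NaCl and MgCl2. Protein–DNA complexes were captured on amylose resin, washed three times, and the DNA was freed with proteinase K, barcoded by PCR and sequenced on Illumina. Binding is expressed as reads-per-million enrichment of pull-down over input, with replicates pooled.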

| Sequence | binding signal |
| --- | --- |
| GATGATTGTTCTCCCAGCTGATGAATTACCTGGATCGAGTAAACAAATTTTCCTAATCTTTCTGTTCAAGCGCCATCTAC | 0.904 RPM ratio (pull-down/input) |
| GATGATTGTTCTCCCAGCTGATGAATTTCGTGATTCGAGTAAACAAATTTTCCTAATCTTTCTGTTCAAGCGCCATCTAC | 0.952 RPM ratio (pull-down/input) |
| GATGATTGTTCTCCCAGCTGATGAATTCGCAGAATCGAGTAAACAAATTTTCCTAATCTTTCTGTTCAAGCGCCATCTAC | 0.95 RPM ratio (pull-down/input) |
| GATGATTGTTCTCCCAGCTGATGAATTGACTAAGTCGAGTAAACAAATTTTCCTAATCTTTCTGTTCAAGCGCCATCTAC | 1.03 RPM ratio (pull-down/input) |
| GATGATTGTTCTCCCAGCTGATGAATTTTTGTTGTCGAGTAAACAAATTTTCCTAATCTTTCTGTTCAAGCGCCATCTAC | 2.85 RPM ratio (pull-down/input) |
| GATGATTGTTCTCCCAGCTGATGAATTCTCACACTCGAGTAAACAAATTTTCCTAATCTTTCTGTTCAAGCGCCATCTAC | 0.906 RPM ratio (pull-down/input) |
| GATGATTGTTCTCCCAGCTGATGAATTCGGCCGGTCGAGTAAACAAATTTTCCTAATCTTTCTGTTCAAGCGCCATCTAC | 0.766 RPM ratio (pull-down/input) |
| GATGATTGTTCTCCCAGCTGATGAATTTTTAAGTTCGAGTAAACAAATTTTCCTAATCTTTCTGTTCAAGCGCCATCTAC | 0.97 RPM ratio (pull-down/input) |
| GATGATTGTTCTCCCAGCTGATGAATTATTACCGTCGAGTAAACAAATTTTCCTAATCTTTCTGTTCAAGCGCCATCTAC | 1.13 RPM ratio (pull-down/input) |
| GATGATTGTTCTCCCAGCTGATGAATTCCCAGCGTCGAGTAAACAAATTTTCCTAATCTTTCTGTTCAAGCGCCATCTAC | 0.949 RPM ratio (pull-down/input) |
| GATGATTGTTCTCCCAGCTGATGAATTTCCAACCTCGAGTAAACAAATTTTCCTAATCTTTCTGTTCAAGCGCCATCTAC | 0.748 RPM ratio (pull-down/input) |
| GATGATTGTTCTCCCAGCTGATGAATTCGCAGCGTCGAGTAAACAAATTTTCCTAATCTTTCTGTTCAAGCGCCATCTAC | 0.904 RPM ratio (pull-down/input) |
| GATGATTGTTCTCCCAGCTGATGAATTTCCGAGATCGAGTAAACAAATTTTCCTAATCTTTCTGTTCAAGCGCCATCTAC | 0.797 RPM ratio (pull-down/input) |
| GATGATTGTTCTCCCAGCTGATGAATTTTTACTTTCGAGTAAACAAATTTTCCTAATCTTTCTGTTCAAGCGCCATCTAC | 1.05 RPM ratio (pull-down/input) |
| GATGATTGTTCTCCCAGCTGATGAATTCACGAATTCGAGTAAACAAATTTTCCTAATCTTTCTGTTCAAGCGCCATCTAC | 0.946 RPM ratio (pull-down/input) |
| GATGATTGTTCTCCCAGCTGATGAATTTTTAAACTCGAGTAAACAAATTTTCCTAATCTTTCTGTTCAAGCGCCATCTAC | 0.924 RPM ratio (pull-down/input) |

| Sequence | binding signal |
| --- | --- |
| GATGATTGTTCTCCCAGCTGATGAATTGAATGTATCGAGTAAACAAATTTTCCTAATCTTTCTGTTCAAGCGCCATCTAC | 1.15 RPM ratio (pull-down/input) |
| GATGATTGTTCTCCCAGCTGATGAATTGGTGAGGTCGAGTAAACAAATTTTCCTAATCTTTCTGTTCAAGCGCCATCTAC | 0.846 RPM ratio (pull-down/input) |
| GATGATTGTTCTCCCAGCTGATGAATTTATCGGGTCGAGTAAACAAATTTTCCTAATCTTTCTGTTCAAGCGCCATCTAC | 0.925 RPM ratio (pull-down/input) |
| GATGATTGTTCTCCCAGCTGATGAATTTCAGAGGTCGAGTAAACAAATTTTCCTAATCTTTCTGTTCAAGCGCCATCTAC | 0.806 RPM ratio (pull-down/input) |
| GATGATTGTTCTCCCAGCTGATGAATTGATAATCTCGAGTAAACAAATTTTCCTAATCTTTCTGTTCAAGCGCCATCTAC | 1.04 RPM ratio (pull-down/input) |
| GATGATTGTTCTCCCAGCTGATGAATTAGAACCATCGAGTAAACAAATTTTCCTAATCTTTCTGTTCAAGCGCCATCTAC | 0.938 RPM ratio (pull-down/input) |
| GATGATTGTTCTCCCAGCTGATGAATTAACAGCTTCGAGTAAACAAATTTTCCTAATCTTTCTGTTCAAGCGCCATCTAC | 0.909 RPM ratio (pull-down/input) |
| GATGATTGTTCTCCCAGCTGATGAATTTTTCTAATCGAGTAAACAAATTTTCCTAATCTTTCTGTTCAAGCGCCATCTAC | 1.13 RPM ratio (pull-down/input) |
| GATGATTGTTCTCCCAGCTGATGAATTGCACCTGTCGAGTAAACAAATTTTCCTAATCTTTCTGTTCAAGCGCCATCTAC | 1.12 RPM ratio (pull-down/input) |
| GATGATTGTTCTCCCAGCTGATGAATTTCAATGTTCGAGTAAACAAATTTTCCTAATCTTTCTGTTCAAGCGCCATCTAC | 0.933 RPM ratio (pull-down/input) |
| GATGATTGTTCTCCCAGCTGATGAATTGTTGAAATCGAGTAAACAAATTTTCCTAATCTTTCTGTTCAAGCGCCATCTAC | 1.21 RPM ratio (pull-down/input) |
| GATGATTGTTCTCCCAGCTGATGAATTGAGCCAGTCGAGTAAACAAATTTTCCTAATCTTTCTGTTCAAGCGCCATCTAC | 0.784 RPM ratio (pull-down/input) |
| GATGATTGTTCTCCCAGCTGATGAATTTTTTCCCTCGAGTAAACAAATTTTCCTAATCTTTCTGTTCAAGCGCCATCTAC | 0.85 RPM ratio (pull-down/input) |
| GATGATTGTTCTCCCAGCTGATGAATTAGGGGTGTCGAGTAAACAAATTTTCCTAATCTTTCTGTTCAAGCGCCATCTAC | 0.896 RPM ratio (pull-down/input) |
| GATGATTGTTCTCCCAGCTGATGAATTGAGACTCTCGAGTAAACAAATTTTCCTAATCTTTCTGTTCAAGCGCCATCTAC | 0.822 RPM ratio (pull-down/input) |
| GATGATTGTTCTCCCAGCTGATGAATTCCGAGTATCGAGTAAACAAATTTTCCTAATCTTTCTGTTCAAGCGCCATCTAC | 0.918 RPM ratio (pull-down/input) |
